According to the supplement of paper PMC10369915:
The list shows a part of the results. No stated cut-off is given here; in the data, active = 3.2 or more and inactive = the rest. Only a few entries rise above the background.

Columns and labels:
Experiment in all cases: enrichment score (SH2-bound / input frequency) (ratio); bacterial display of known human phosphotyrosine sites (pTyr-Var adds point mutants) read by sequencing; higher = stronger binding; tyrosines were phosphorylated by kinases first
Details in all cases: peptide library: Human pTyr
[1] = target: SHP2 C-SH2 domain E139D
[2] = target: SHP2 C-SH2 domain wild-type
[3] = target: SHP2 N-SH2 domain L43F
[4] = target: SHP2 N-SH2 domain T42A
[5] = target: SHP2 N-SH2 domain T52S
[6] = target: SHP2 N-SH2 domain wild-type

Measured: enrichment score
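Further: displayed peptides selected on beads carrying the immobilized SH2 domain, with library peptides lacking any tyrosine serving as negative controls.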

B1: NOS2_HUMAN_575 (peptide)
chain: KVVCMDKYRLSCLEE
inactive: [1] 0.977 | [2] 0.883 | [3] 0.935 | [4] 1.09 | [5] 1.12 | [6] 0.919

B2: NTAL_HUMAN_193 (peptide)
chain: EDEESEDYQNSASIH
inactive: [1] 1.06 | [2] 1.16 | [3] 0.967 | [4] 1.17 | [5] 1.2 | [6] 1.15

B3: NTAL_HUMAN_233 (peptide)
chain: EEDGEPDYVNGEVAA
inactive: [1] 1.29 | [2] 1.1 | [3] 1.17 | [4] 1.21 | [5] 1.23 | [6] 1.27

B4: ANXA2_HUMAN_199 (peptide)
chain: DQDARDLYDAGVKRK
inactive: [1] 0.932 | [2] 0.798 | [3] 0.7 | [4] 0.61 | [5] 0.694 | [6] 0.813

B5: NTRK1_HUMAN_676_YA (peptide)
chain: FGMSRDIYSTDAARV
inactive: [1] 0.783 | [2] 0.642 | [3] 0.704 | [4] 0.66 | [5] 0.613 | [6] 0.654

B6: NTRK1_HUMAN_681 (peptide)
chain: DIYSTDYYRVGGRTM
inactive: [1] 0.9 | [2] 0.683 | [3] 0.696 | [4] 0.706 | [5] 0.663 | [6] 0.575

B7: NTRK1_HUMAN_681_YA (peptide)
chain: DIASTDAYRVGGRTM
inactive: [1] 0.661 | [2] 0.577 | [3] 0.65 | [4] 0.606 | [5] 0.633 | [6] 0.528

B8: NTRK2_HUMAN_702 (peptide)
chain: FGMSRDVYSTDYYRV
inactive: [1] 0.777 | [2] 0.797 | [3] 0.732 | [4] 0.635 | [5] 0.849 | [6] 0.822

B9: NTRK2_HUMAN_702_YA (peptide)
chain: FGMSRDVYSTDAARV
inactive: [1] 0.577 | [2] 0.638 | [3] 0.688 | [4] 0.561 | [5] 0.553 | [6] 0.706

B10: NTRK3_HUMAN_705 (peptide)
chain: FGMSRDVYSTDYYRL
inactive: [1] 1.02 | [2] 0.883 | [3] 0.801 | [4] 0.788 | [5] 0.634 | [6] 1.13

B11: NTRK3_HUMAN_705_YA (peptide)
chain: FGMSRDVYSTDAARL
inactive: [1] 0.603 | [2] 0.543 | [3] 0.583 | [4] 0.624 | [5] 0.574 | [6] 0.632

B12: NTRK3_HUMAN_710_YA (peptide)
chain: DVASTDAYRLFNPSG
inactive: [1] 0.606 | [2] 0.486 | [3] 0.946 | [4] 0.469 | [5] 0.517 | [6] 0.484

B13: NUFP2_HUMAN_218 (peptide)
chain: GSGSESGYTTPKKRK
inactive: [1] 1.14 | [2] 1.28 | [3] 0.997 | [4] 1.1 | [5] 1.1 | [6] 1.28

B14: NUMA1_HUMAN_1836 (peptide)
chain: DSANSSFYSTRSAPA
inactive: [1] 0.565 | [2] 0.594 | [3] 0.699 | [4] 0.627 | [5] 0.673 | [6] 0.705

B15: NYAP2_HUMAN_268 (peptide)
chain: DDQSEAVYEEMKYPI
inactive: [1] 1.06 | [2] 1.08 | [3] 1.22 | [4] 1.06 | [5] 1.11 | [6] 1.15

B16: ANXA6_HUMAN_30 (peptide)
chain: NQDAEALYTAMKGFG
inactive: [1] 0.568 | [2] 0.508 | [3] 0.605 | [4] 0.491 | [5] 0.607 | [6] 0.55

B17: OCLN_HUMAN_398 (peptide)
chain: KRTEQDHYETDYTTG
inactive: [1] 0.996 | [2] 0.943 | [3] 0.788 | [4] 0.718 | [5] 0.862 | [6] 0.88

B18: OCLN_HUMAN_398_YA (peptide)
chain: KRTEQDHYETDATTG
inactive: [1] 0.95 | [2] 0.929 | [3] 1.05 | [4] 0.886 | [5] 1.07 | [6] 1.16

B19: ODPB_HUMAN_67 (peptide)
chain: VAQYDGAYKVSRGLW
inactive: [1] 0.783 | [2] 0.704 | [3] 0.667 | [4] 0.722 | [5] 0.765 | [6] 0.846

B20: ODPB_HUMAN_67_YA (peptide)
chain: VAQADGAYKVSRGLW
inactive: [1] 0.872 | [2] 0.744 | [3] 0.836 | [4] 0.822 | [5] 0.855 | [6] 0.857

B21: OPRM_HUMAN_168 (peptide)
chain: CTMSVDRYIAVCHPV
inactive: [1] 1.74 | [2] 1.45 | [3] 1.73 | [4] 1.55 | [5] 1.93 | [6] 1.75

B22: ORN_HUMAN_122 (peptide)
chain: ITLQQAEYEFLSFVR
inactive: [1] 1.38 | [2] 1.37 | [3] 1.09 | [4] 1.21 | [5] 1.27 | [6] 1.99

B23: OSB11_HUMAN_62 (peptide)
chain: SDHMENVYGYLMKYT
inactive: [1] 1.43 | [2] 1.09 | [3] 1.08 | [4] 1.01 | [5] 1.11 | [6] 1.77

B24: AP2B1_HUMAN_737 (peptide)
chain: THRQGHIYMEMNFTN
inactive: [1] 1.77 | [2] 1.7 | [3] 1.8 | [4] 1.95 | [5] 1.85 | [6] 2.18

B25: OSTP_HUMAN_225 (peptide)
chain: DSRGKDSYETSQLDD
inactive: [1] 0.987 | [2] 0.928 | [3] 0.886 | [4] 0.939 | [5] 1.15 | [6] 1.07

B26: OTUD4_HUMAN_460 (peptide)
chain: IEESRLLYEIQNRDE
inactive: [1] 0.805 | [2] 0.76 | [3] 0.999 | [4] 0.867 | [5] 0.916 | [6] 0.765

B27: P2RX7_HUMAN_343_YA (peptide)
chain: AIGSTLSYFGLAAVF
inactive: [1] 2.29 | [2] 2.5 | [3] 2.11 | [4] 2.27 | [5] 2.51 | [6] 3.04

B28: P73_HUMAN_28 (peptide)
chain: SLEPDSTYFDLPQSS
inactive: [1] 0.791 | [2] 0.685 | [3] 0.653 | [4] 0.633 | [5] 0.719 | [6] 0.596

B29: P73_HUMAN_99 (peptide)
chain: SVPTHSPYAQPSSTF
inactive: [1] 0.623 | [2] 0.518 | [3] 0.607 | [4] 0.583 | [5] 0.494 | [6] 0.614

B30: APBB1_HUMAN_547 (peptide)
chain: VQKFQVYYLGNVPVA
inactive: [1] 2.03 | [2] 1.92 | [3] 1.73 | [4] 1.79 | [5] 1.95 | [6] 1.99

B31: P85A_HUMAN_467_YA (peptide)
chain: SREADRLYEEATRTS
inactive: [1] 0.795 | [2] 0.616 | [3] 0.634 | [4] 0.64 | [5] 0.637 | [6] 0.589

B32: P85B_HUMAN_464_YA (peptide)
chain: SREADQLYEEATRTS
inactive: [1] 0.718 | [2] 0.589 | [3] 0.764 | [4] 0.69 | [5] 0.621 | [6] 0.706

B33: P85B_HUMAN_605 (peptide)
chain: KNETEDQYALMEDED
inactive: [1] 1.1 | [2] 1.2 | [3] 1.08 | [4] 1.19 | [5] 1.37 | [6] 1.22

B34: PAK1_HUMAN_131 (peptide)
chain: VLDVLEFYNSKKTSN
inactive: [1] 0.776 | [2] 0.718 | [3] 0.866 | [4] 0.689 | [5] 1.16 | [6] 1.18

B35: PAK2_HUMAN_139 (peptide)
chain: SNTVKQKYLSFTPPE
inactive: [1] 0.838 | [2] 0.72 | [3] 0.787 | [4] 0.716 | [5] 0.808 | [6] 1.19

B36: PARD3_HUMAN_489 (peptide)
chain: IGGSAPIYVKNILPR
inactive: [1] 0.783 | [2] 0.733 | [3] 0.847 | [4] 0.922 | [5] 1.02 | [6] 0.905
